Test results: patent publication US11155596B2, “Polypeptide” (AFFIBODY AB, priority 2016, dated 2021)
Where two headings read alike, the source gives them in different places.

Assays:
[1] = Circular dichroism (CD) spectroscopy, variable temperature measurement; format: physicochemical; settings: His6-tagged Z variants in PBS; VTM to 80° C.
Method: Circular dichroism (CD) spectroscopy analysis: Two purified Z variants with a C-terminal cysteine, Z15168-Cys (SEQ ID NO:809) and Z15169-Cys (SEQ ID NO:810), were diluted to 0.5 mg/ml in 20 mM HEPES, 1 mM EDTA, pH 7.2. For each diluted Z variant, a CD spectrum at 250-195 nm was obtained at 20° C. In addition, a variable temperature measurement (VTM) was performed to determine the melting temperature (Tm). In the VTM, the absorbance was measured at 221 nm while the temperature was raised from 20 to 90° C., with a temperature slope of 5° C./min. A new CD spectrum was obtained at 20° C. after the heating procedure in order to study the refolding ability of the Z variants. The CD measurements were performed on a Jasco J-810 spectropolarimeter (Jasco Scandinavia AB) using a cell with an optical path length of 1 mm.
Circular dichroism (CD) spectroscopy analysis: A subset of the purified Hiss-tagged Z variants were analyzed by CD spectroscopy as described in Example 3, but with the exceptions that the analysis buffer was PBS and that the temperature was raised to 80° C. in the VTM.

hPD-L1 binding to hPD-1 = target: T1, hPD-L1 binding to hPD-1 (Homo sapiens, UniProt Q9NZQ7); assay: AlphaLISA blocking assay (Example 7); settings: His6-tagged Z variants 250 nM to 4 pM; 8 nM biotinylated hPD-L1; read-out: IC50 AlphaLISA (M), blocking the PD-1/PD-L1 interaction
T1 construct: 1086-PD-050 (hPD-1)
T1 sequence (Q9NZQ7 19-239 limits assumed): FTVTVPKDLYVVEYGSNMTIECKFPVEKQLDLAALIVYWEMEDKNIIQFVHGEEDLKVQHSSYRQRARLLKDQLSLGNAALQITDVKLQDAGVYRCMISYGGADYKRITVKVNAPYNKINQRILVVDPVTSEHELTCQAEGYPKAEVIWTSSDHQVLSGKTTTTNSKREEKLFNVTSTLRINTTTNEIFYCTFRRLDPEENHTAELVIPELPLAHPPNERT
Method: AlphaLISA blocking assay: The potential of Z variants to inhibit binding of PD-L1 to PD-1 was analyzed by AlphaLISA and recordings in an EnSpire multiplate reader 2300 (Perkin Elmer). hPD-1 (human PD-1 Fc-chimera; R&D Systems, cat. no. 1086-PD-050) was immobilized on AlphaLISA Acceptor beads (Perkin Elmer, cat. no. 6772002) according to the manufacturer's recommendations. […] Finally, streptavidin coated Donor beads (Perkin Elmer, cat. no. 6772002) were added to a final concentration of 40 μg/ml and incubated for 30 min. All incubations were performed at RT in the dark. The plate was analyzed in the EnSpire instrument and the IC50 values were calculated using GraphPad Prism 5.
Exception 2: hPD-1-coated Acceptor beads were added to a final concentration of 10 μg/ml and incubated for 50 min.

RhPD-L1 = assay: Biacore kinetic analysis of maturated Z variants, RhPD-L1; format: binding, rhesus monkey
Method: (§1) hPD-L1, hPD-L2, hB7-H3, hB7-H4 and mPD-L1 were immobilized in separate flow cells on the carboxylated dextran layer of different CM5 chip surfaces (GE Healthcare, cat. no. BR100012). The immobilization was performed using amine coupling chemistry according to the manufacturer's protocol and using HBS-EP as running buffer (0.01 M HEPES pH 7.4, 0.15 M NaCl, 3 mM EDTA, 0.005% v/v Surfactant P20, GE Healthcare, cat. no. BR100188). […] One flow cell surface on each chip was activated and deactivated for use as blank during analyte injections. In the kinetic experiment, HBS-EP was used as running buffer and the flow rate was 50 μl/min. The analytes, i.e. the Z variants, were each diluted in HBS-EP buffer within a concentration range of 1000 to 0.01 nM and injected for 5 min, followed by dissociation in running buffer for 15-25 min. After dissociation, the surfaces were regenerated with one or two injections of 0.1% SDS. Kinetic constants were calculated from the sensorgrams using the Langmuir 1:1 model of BiaEvaluation software 4.1 (GE Healthcare).
(§2) Biacore kinetic and specificity analysis: Kinetic constants (ka and kd) and affinities (KD) for human PD-L1 and rhesus monkey PD-L1 (RhPD-L1; rhesus PD-L1/Fc Chimera, Sino Biological Inc., cat. no. 90251-C02H) were determined for 24 matured Hiss-tagged Z variants (specified in Example 6). The Z variants were also tested for binding against the sequence-related proteins hPD-L2, hB7-H3 and hB7-H4. The Biacore analyses were performed essentially as described in Example 3, however a flow rate of 30 μl/min was used. […] In a first binding kinetic analysis, the 24 Z variants were injected at concentrations of 5 and 50 nM over chips immobilized with hPD-L1 and RhPD-L1, respectively. […] In the specificity test, i.e. the binding analysis against hPD-L2, hB7-H3 and hB7-H4, the 24 Z variants were injected at a concentration of 500 nM.

hPD-L1 = hPD-L1 (Homo sapiens, UniProt Q9NZQ7); assay: Biacore kinetic analysis of maturated Z variants, hPD-L1; format: binding; settings: ranking experiment, His6-tagged Z variants at 5 and 50 nM; 1:1 model; read-out: hPD-L1 KD (M), approximate affinity constant
Chain of hPD-L1 (Q9NZQ7 19-290): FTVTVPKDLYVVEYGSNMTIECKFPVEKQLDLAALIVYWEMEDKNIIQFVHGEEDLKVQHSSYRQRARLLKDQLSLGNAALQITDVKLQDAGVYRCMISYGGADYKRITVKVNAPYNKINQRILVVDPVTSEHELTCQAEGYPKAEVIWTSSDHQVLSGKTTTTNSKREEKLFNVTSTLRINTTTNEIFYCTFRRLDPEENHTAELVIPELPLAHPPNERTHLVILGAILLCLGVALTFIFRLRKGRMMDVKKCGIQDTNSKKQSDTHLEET
Method: as §1, §2

[2] = His6-tagged Z variants at 135, 45, 15, 5 and 1.67 nM, read-out: RhPD-L1 KD
[3] = ranking experiment, His6-tagged Z variants at 5 and 50 nM, 1:1 model, read-out: RhPD-L1 KD (M), approximate affinity constant

Substance	Tm (° C.) [1] [°C]	IC50 (hPD-L1 binding to hPD-1) [M]	Kd (RhPD-L1; [2]) [M]	Kd (RhPD-L1; [3]) [M]	Kd (hPD-L1) [M]
Z17746: maturated PD-L1 binding Z variant (VDAKYAKERNEAAYEILYLPNLTNAQKWAFIWKLDDDPSQSSELLSEAKKLNDSQAPK; Engineered PD-L1 binding polypeptide)	59	1.3e-09	–	–	–
Z17756: maturated PD-L1 binding Z variant (VDAKYAKERNAAAFEILYLPNLTNAQKWAFIWKLDDDPSQSSELLSEAKKLNDSQAPK; Engineered PD-L1 binding polypeptide)	63	1.5e-09	1.7e-10	2.1e-09	–
Z17972: maturated PD-L1 binding Z variant (VDAKYAKERNIAAYEILYLPNLTNNQKWAFIWKLDDDPSQSSELLSEAKKLNDSQAPK; Engineered PD-L1 binding polypeptide)	–	–	–	–	5.4e-10
Z18022: maturated PD-L1 binding Z variant (VDAKYAKERNSAAYEILYLPNLTNQQKWAFIWKLDDDPSQSSELLSEAKKLNDSQAPK; Engineered PD-L1 binding polypeptide)	59	3.1e-10	–	–	–
Z18039: maturated PD-L1 binding Z variant (VDAKYAKERNEAAYEILYLPNLTQSQIWAFIWKLDDDPSQSSELLSEAKKLNDSQAPK; Engineered PD-L1 binding polypeptide)	55	–	–	1.9e-09	6.3e-10
Z18052: maturated PD-L1 binding Z variant (VDAKYAKERNIAAYEILYLPNLTQSQIWAFIWKLDDDPSQSSELLSEAKKLNDSQAPK; Engineered PD-L1 binding polypeptide)	–	3.4e-10	–	1.2e-09	4.5e-10
Z18054: maturated PD-L1 binding Z variant (VDAKYAKERNDAAFEILYLPNLTQAQIWAFIWKLDDDPSQSSELLSEAKKLNDSQAPK; Engineered PD-L1 binding polypeptide)	–	1.1e-09	–	1.2e-09	–
Z18066: maturated PD-L1 binding Z variant (VDAKYAKERNEAAYEILYLPNLTNSQKWAFIWKLDDDPSQSSELLSEAKKLNDSQAPK; Engineered PD-L1 binding polypeptide)	58	8.3e-10	3.5e-10	2.1e-09	–
Z18070: maturated PD-L1 binding Z variant (VDAKYAKERNAAAYEILYLPNLTNHQKWAFIWKLDDDPSQSSELLSEAKKLNDSQAPK; Engineered PD-L1 binding polypeptide)	60	8.6e-10	–	–	–
Z18101: maturated PD-L1 binding Z variant (VDAKYAKERNSAAYEILYLPNLTNLQKWAFIWKLDDDPSQSSELLSEAKKLNDSQAPK; Engineered PD-L1 binding polypeptide)	–	6.2e-10	–	–	9.3e-10
Z18129: maturated PD-L1 binding Z variant (VDAKYAKERNSAAYEILYLPNLTQAQKWAFIWKLDDDPSQSSELLSEAKKLNDSQAPK; Engineered PD-L1 binding polypeptide)	63	6e-10	–	1.2e-09	–
Z18149: maturated PD-L1 binding Z variant (VDAKYAKERNNAAYEILYLPNLTQAQKWAFIWKLDDDPSQSSELLSEAKKLNDSQAPK; Engineered PD-L1 binding polypeptide)	–	–	–	9.6e-10	5.3e-10
Z18353: maturated PD-L1 binding Z variant (VDAKYAKERNEAAYEILYLPNLTQAQKWAFIWKLDDDPSQSSELLSEAKKLNDSQAPK; Engineered PD-L1 binding polypeptide)	–	7.2e-10	–	1.6e-09	4.6e-10
Z18418: maturated PD-L1 binding Z variant (VDAKYAKERNEAAYEILHLPNLTSYQHWAFIWKLDDDPSQSSELLSEAKKLNDSQAPK; Engineered PD-L1 binding polypeptide)	–	5.7e-10	–	4.1e-09	1.9e-09
